Laboratory results taken from publication PMC4336329 (PLoS ONE, 2015).
Out of some 310,000 compounds screened, about 2,200 (0.71%) showed an effect of 50% or more. Effects have a minus sign here. Some of the results follow.

Each compound was assayed against human ether-à-go-go-related gene (hERG) potassium channel (human, UniProt Q12809) (assay: primary screen, population patch clamp on CHO cells stably expressing hERG).
human ether-à-go-go-related gene (hERG) potassium channel, sequence (Q12809 whole entry, looked up): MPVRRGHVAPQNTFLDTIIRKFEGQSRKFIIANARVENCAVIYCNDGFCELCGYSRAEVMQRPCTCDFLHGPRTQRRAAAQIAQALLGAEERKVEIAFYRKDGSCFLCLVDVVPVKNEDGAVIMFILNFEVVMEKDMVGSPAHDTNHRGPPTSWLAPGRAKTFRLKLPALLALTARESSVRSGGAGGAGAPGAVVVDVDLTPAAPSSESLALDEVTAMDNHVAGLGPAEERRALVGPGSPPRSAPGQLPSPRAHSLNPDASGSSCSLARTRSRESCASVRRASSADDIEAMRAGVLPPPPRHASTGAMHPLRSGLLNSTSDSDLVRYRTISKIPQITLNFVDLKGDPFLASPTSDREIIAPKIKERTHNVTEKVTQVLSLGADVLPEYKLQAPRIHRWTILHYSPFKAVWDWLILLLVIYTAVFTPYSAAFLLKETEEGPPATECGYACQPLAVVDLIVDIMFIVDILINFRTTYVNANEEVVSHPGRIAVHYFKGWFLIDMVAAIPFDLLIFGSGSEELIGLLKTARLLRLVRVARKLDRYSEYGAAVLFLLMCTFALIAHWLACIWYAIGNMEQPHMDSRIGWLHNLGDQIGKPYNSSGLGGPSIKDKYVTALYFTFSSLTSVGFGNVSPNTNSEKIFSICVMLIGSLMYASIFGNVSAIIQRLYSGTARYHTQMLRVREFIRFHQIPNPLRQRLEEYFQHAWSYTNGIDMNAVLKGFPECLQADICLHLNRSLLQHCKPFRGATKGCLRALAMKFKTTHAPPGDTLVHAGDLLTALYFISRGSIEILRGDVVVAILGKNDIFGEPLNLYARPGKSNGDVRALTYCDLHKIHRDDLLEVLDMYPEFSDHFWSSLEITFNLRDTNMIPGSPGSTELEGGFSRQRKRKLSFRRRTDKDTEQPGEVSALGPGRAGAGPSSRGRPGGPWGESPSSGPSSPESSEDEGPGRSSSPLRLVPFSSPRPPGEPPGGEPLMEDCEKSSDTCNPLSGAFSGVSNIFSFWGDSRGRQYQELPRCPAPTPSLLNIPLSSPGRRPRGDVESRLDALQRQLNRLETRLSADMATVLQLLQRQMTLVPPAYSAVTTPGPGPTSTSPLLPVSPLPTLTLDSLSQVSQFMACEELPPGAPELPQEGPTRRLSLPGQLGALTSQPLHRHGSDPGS

SMILES	hERG current change (%, negative = inhibition) at 1uM [%]
O=C(C1CCN(S(=O)(=O)c2cccc3cccnc23)CC1)N1CCn2c1nc1ccccc12	9.93
Cn1c(=O)c(/C(N)=N/OC(=O)c2ccccc2)cn(-c2ccccc2)c1=O	13.9
CCOC(=O)N1CCN(C(=O)C2CCC(=O)N(CCc3ccccc3)C2)CC1 (stereo not drawn)	12.7
CCOc1ccc2nc(N3CCCC(C(=O)N4CCN(CC)CC4)C3)sc2c1 (stereo not drawn)	-1
CC(NC(=S)NC1CCCCC1)C(c1ccccc1)N1CCOCC1 (stereo not drawn)	11.7
C=CCOC(=O)/C(=C\c1ccccc1)NC(=O)c1ccco1	1.39
O=C(Nc1nc2c(s1)CCCC2)c1cccc(S(=O)(=O)N2CCCc3ccccc32)c1	-0.193
Cc1cccc(N2C(=O)CC(Sc3ncn[nH]3)C2=O)c1 (stereo not drawn)	16.9
O=C(Nc1nnc(CC(c2ccccc2)c2ccccc2)s1)c1ccco1	16.6
COCCCNC(=O)c1nc2c(nnn2Cc2cc(C)ccc2C)c(=O)[nH]1	10.5
COC(=O)C1=C(c2ccc(OC(F)(F)F)cc2)C[C@@H]2CC[C@H]1N2C(=O)N1CCOCC1	-0.581
Cc1ccc(NC(=O)c2ccccc2)s1	-5.19
O=C(COC(=O)C1CC2CCCC(C1)C2=O)NNC(=O)c1ccc([N+](=O)[O-])cc1 (stereo not drawn)	-0.218
OCCC1CN(Cc2nc3c(s2)CCCC3)CCN1Cc1ccsc1 (stereo not drawn)	2.76
CCOC(=O)C1(CCOc2ccccc2)CCN(Cc2cccn2-c2cccnc2)CC1	9.53
Cc1ccccc1OCCC(=O)OCC(=O)NCCc1ccc(S(N)(=O)=O)cc1	6.02
COc1ccc(C)cc1NC1=NCCCS1	17.4
CC(=O)Nc1ccc(NC(=O)CSc2n[nH]c(-c3cccs3)n2)cc1	-5.49
Cc1nn(Cc2ccc(Cl)cc2)c(C)c1NC(=O)CCCn1nc([N+](=O)[O-])c(Cl)c1C	-39.3
CC(=O)c1ccc(N2C(=NC(=O)CCc3ccccc3)SC3CS(=O)(=O)CC32)cc1 (stereo not drawn)	10.3
CN(C(=O)c1ccccc1F)C(c1ccccc1)c1ccccc1	9.05
Cc1sc2nc(SCc3ccccc3)n(Cc3ccco3)c(=O)c2c1C	-6.43

SMILES	hERG current change (%, negative = inhibition) at 1uM [%]
CC(C)(C)c1ccc(-c2nc(-c3ccncc3)no2)cc1	3.82
Cc1nc2ccccc2n1CC(=O)NCc1ccccc1	19.3
O=C(COc1ccc2c(c1)oc(=O)c1ccccc12)NCC1CCC(C(=O)O)CC1 (stereo not drawn)	13.3
O=C(CN1CCN(Cc2ccccc2)CC1)NC(=O)NCc1ccco1	-12.3
C/C(CC(=O)NCc1ccco1)=N\NC(=O)C(c1ccccc1)c1ccccc1	6.69
CC(=O)N1CCN(C(=O)COc2ccc(N(C)S(=O)(=O)c3cccs3)cc2)CC1	12.9
NNC(=O)CC(=O)NC1(Cc2ccc(O)cc2)CCCCC1	-0.984
CC(=O)Nc1ccc(NC(=O)C(C)N2CCN(S(=O)(=O)c3ccc(C)cc3)CC2)cc1 (stereo not drawn)	2.7
COc1cccc(-c2nc(CS(=O)(=O)CC(=O)N3CCc4ccccc43)c(C)o2)c1	14.3
COc1ccc(NC(=O)Cn2nnc(C(=O)NCc3ccco3)c2N)cc1	17.1
O=C1N=C(N2CCCCC2)SC1=C1CCCC1	5.7
O=Cc1cccc(OC(=O)Nc2ccccc2)c1	5.69
NS(=O)(=O)c1ccc(CCNC(=O)CCc2nc3sc4c(c3c(=O)[nH]2)CCCC4)cc1	13.8
CS(=O)(=O)c1cccc(S(=O)(=O)N2CCCCCC2)c1	21.2
CC(=O)c1sc(N/N=C/c2cccc([N+](=O)[O-])c2)nc1C	16.8
O=C(Nc1ccc(S(=O)(=O)Nc2ccccn2)cc1)c1cccc([N+](=O)[O-])c1	5.1
Cc1nc2ccc(Br)cn2c1C(=O)N/N=C\c1ccccc1[N+](=O)[O-]	15.8
NC(=O)c1ccc(NC(=O)COC(=O)c2cc([N+](=O)[O-])ccc2N2CCOCC2)cc1	5.94
CC1(C)Cc2cccc(C(=O)NC3CCN(Cc4ccccc4)CC3)c2O1	1.5
COc1c(OC(C)=O)ccc(/C=C/c2ccc3cccc(OCc4ccccc4)c3n2)c1[N+](=O)[O-]	18.7
Cc1cccc(-c2nnn(Cc3nnc(NC(=O)c4ccccc4)s3)n2)c1	5.74
Cc1cc(S(=O)(=O)NCC(C)C)ccc1OCC(=O)NC1CC1	7.56

SMILES	hERG current change (%, negative = inhibition) at 1uM [%]
O=C(CCCN1C(=O)/C(=C\c2cccs2)SC1=S)Nc1ccc(O)cc1	9.34
COc1cc(OC)c(NC(=O)c2ccc(Br)o2)cc1Cl	0.227
CCOC(=O)CSc1n[nH]c(-c2cccnc2)n1	11
CC(C)(C)C1C/C(=C/c2ccco2)C(=O)/C(=C/c2ccco2)C1 (stereo not drawn)	-1.88
Cc1nc2sc(C(c3cccs3)N3CCN(c4ccccc4)CC3)c(O)n2n1 (stereo not drawn)	5.92
O=C(CCc1nc2ccccc2[nH]1)Nc1ccccc1	3.53
COc1ccc(-c2noc(-c3ccccc3Cl)n2)cc1OC	15.3
CN1CCN(c2oc(COc3ccc(-c4ccccc4)cc3)nc2C#N)CC1	3.72
COc1cccc(C2c3c(oc4ccccc4c3=O)C(=O)N2CCCN2CCOCC2)c1 (stereo not drawn)	3.27
CCOC(=O)c1ccc(CNC(=O)c2n[nH]c(=O)c3ccccc23)o1	14.7
CN(C)/C=N/c1nc2ncc(-c3ccc(Cl)cc3)c(/N=C/N(C)C)n2n1	13.5
Cc1cc(C(=O)N2CCN(CCc3ccccc3)CC2)no1	-0.319
COc1ccc(NC(=O)NCCCN2CCN(c3cc(C)ccc3C)CC2)cc1	-80.4
CCCc1cc(=O)[nH]c(SCC(=O)Nc2ccc3c(c2)CCC3)n1	20
NC(CSC12CC3CC(CC(C3)C1)C2)C(=O)O (stereo not drawn)	11
CCC(C)c1ccc(NC(=S)NCc2cccs2)cc1 (stereo not drawn)	5.77
O=S(=O)(c1cccc(Cl)c1)N1CN(CC2CCCO2)c2nc3ccccc3nc21 (stereo not drawn)	9.19
CCOC(=O)C1=C(C)NC(=O)NC1c1ccc(OCC(=O)OC)c(OC)c1 (stereo not drawn)	6.8
COc1cccc2cc(C(=O)NCc3ccc(C)cc3)c(=N)oc12	9.88
Cc1ccc2c(cnn2C(=O)CCC(=O)N2CCCCC2C)c1 (stereo not drawn)	10.7
CN(C)C(=S)NC1CCS(=O)(=O)C1 (stereo not drawn)	6.72
COc1ccc(N2C(=O)CC(N3CCN(S(=O)(=O)c4c(F)cccc4F)CC3)C2=O)cc1OC (stereo not drawn)	13.5

SMILES	hERG current change (%, negative = inhibition) at 1uM [%]
COC(=O)c1ccc(-c2nc(O)c3cnccn23)cc1	11.5
COc1cc(CNCc2ccccn2)ccc1OCc1ccc(Cl)cc1.Cl	-7.26
O=C(NN=C1CCCC1)c1n[nH]c2c1CCCC2	8.46
Nc1nonc1-n1nnc(C(=O)N/N=C/c2ccccn2)c1CNc1ccccc1	11.5
COCCCNC(=O)c1c(NC(=O)c2ccco2)n(Cc2ccccc2)c2nc3ccccc3nc12	13.7
CNS(=O)(=O)c1cccc(C(=O)OCC(=O)N2CC(C)OC(C)C2)c1 (stereo not drawn)	12
CC1CCN(CC(=O)Nc2ccc(N3CCCCCC3)cc2)CC1.O=C(O)C(=O)O	9.58
CCOc1cc(N2CCOCC2)c(OCC)cc1NC(=O)CN1C(=O)NC(CC(C)C)C1=O (stereo not drawn)	-12.7
COc1ccc(-c2nc(Cn3c(SCc4ccc(C)cc4)nc4ccncc43)c(C)o2)cc1OC	9.17
O=C(NCc1ccc(F)cc1)C1CCCN1S(=O)(=O)c1cccc2nsnc12 (stereo not drawn)	8.83
O=C(CCc1ccccc1)NN1C(=O)C2C3C=CC(C3)C2C1=O (stereo not drawn)	14
O=C(NC(O)C(=O)c1ccccc1)c1ccccn1 (stereo not drawn)	17.2
COc1ccc(OC)c(S(=O)(=O)NC2CCCCNC2=O)c1 (stereo not drawn)	13
Cn1c(CCCOc2ccc(Cl)cc2Cl)nnc1SCC(=O)Nc1ccc(F)c(Cl)c1	10.6
CCN1C(=O)[C@H]2[C@@H](c3ccc(-c4ccc(Cl)c(Cl)c4)cc3)N[C@@](CC(C)C)(C(=O)OC)[C@H]2C1=O.O=C(O)C(F)(F)F	11.6
COc1ccc(-n2c(SCC3CNC(=O)O3)nnc2-c2ccc(Cl)cc2)cc1 (stereo not drawn)	-11.6
NNC(=O)COc1ccccc1[N+](=O)[O-]	34
Nc1nc(Nc2ccccc2Cl)cc(=O)[nH]1	9.88
Cc1ccc(S(=O)(=O)n2cc(-c3ccccc3)c(N)n2)cc1	0.171
COc1ccc(C(=O)C2CCN(C(=S)NCCc3ccccc3)CC2)cc1	3.98
COC(=O)C(Cc1ccccc1)NC(=O)CSc1nc(C)cc(=O)[nH]1 (stereo not drawn)	8.82
